Measured values: the supplement of paper PMC3724861
This is one part of the list.

test system: T1, Caupolican (Caup) homeodomain DNA-binding domain; test: PBM E-score (8-mer, recovered from the published 9-mer minima) (E-score (dimensionless, -0.5 to 0.5)); Drosophila protein; higher = stronger relative binding preference, active = 0.31 or more
T1 sequence: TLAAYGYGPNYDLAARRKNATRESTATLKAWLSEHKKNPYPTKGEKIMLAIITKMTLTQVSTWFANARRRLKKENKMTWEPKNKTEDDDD
How it was run: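 Caup's homeodomain DNA-binding domain (residues 214-303) was made by in vitro transcription and translation and applied at 100 nM to custom-designed protein binding microarrays. Each value is an enrichment score that gives relative binding preference for a short DNA word, with higher meaning stronger. The 8-mer values were recovered from published 9-mer scores, each of which was the minimum of its two constituent 8-mer scores. A cutoff of 0.31 marks candidate sites.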

Sequence | PBM E-score
CCTTTTTA | inactive: -0.0158
CGAGGTTA | inactive: 0.0257
TGAGGCCA | inactive: -0.118
CAGTGCTC | inactive: -0.0711
ATTAAGCA | inactive: 0.0138
CGCCCTGC | inactive: -0.202
GAGGGAGA | inactive: -0.155
AAAACCTC | inactive: -0.00612
TAACATGA | active: 0.424
AAGCTTAC | inactive: -0.0272
TCGGTGAA | inactive: -0.0311
CCAAATGG | inactive: -0.069
AAGGCGTA | inactive: -0.0451
CGGTTCGC | inactive: -0.139
AATTTAGT | inactive: 0.132
AGATGGAA | inactive: 0.0415
TGCGGCCA | inactive: -0.177
GTGGTTGA | inactive: 0.0698
GAGGATCA | inactive: -0.0175
CGAGCAGC | inactive: 0.00279
ACGTAGGG | inactive: -0.147
GCTTCGAC | inactive: -0.0958
AGTCAGGG | inactive: -0.0698
ACTATGTC | inactive: 0.302

Sequence | PBM E-score
AGCCTTGC | inactive: -0.22
ATAGGCTG | inactive: -0.00365
AGCCGGAT | inactive: -0.163
CGTACTAC | inactive: 0.129
CACAACAA | inactive: 0.29
AATCTGGT | inactive: 0.0722
AAACTTTA | inactive: 0.0827
CAAGTGGA | inactive: 0.0464
CCTGAGGA | inactive: -0.0674
TGAACCCA | inactive: -0.127
CAGTCGCC | inactive: -0.243
AGTTTTTA | inactive: 0.0431
AGATTCAT | ≥ 0.106
AGGAAGCA | inactive: -0.0746
CGTAGAAA | inactive: 0.025
GAAACTTA | inactive: 0.0762
CTTACACC | inactive: 0.0684
AGCCCTAT | inactive: -0.111
AAAAACAT | inactive: 0.296
CTTGGACA | inactive: 0.16
ACCCCTAC | inactive: -0.0349
AATAGGTG | inactive: 0.0711
ACACCCGC | inactive: -0.0419
AAGTATTA | inactive: 0.157

Sequence | PBM E-score
GACCAAAC | inactive: -0.00733
GCTCAGCA | inactive: 0.0118
TAGTCCGA | inactive: -0.0351
ACGCGCCG | inactive: -0.154
AATCCATG | inactive: 0.0904
CCGCGAAC | inactive: -0.151
AACAGTTA | inactive: 0.0683
AGAGGAGC | inactive: -0.148
CACCCGTA | inactive: -0.0759
ACTTCATG | inactive: 0.0721
ATCGTCCG | inactive: 0.00258
AAATTCAT | inactive: 0.135
CCTCATGC | inactive: -0.129
CACCCTGG | inactive: -0.116
ACAGCCAC | inactive: -0.0462
CCGTAACC | inactive: -0.0824
ATTGCAGA | ≥ 0.0838
CTCCCATA | inactive: -0.0431
ATCTCTTG | inactive: 0.0726
GAGGGAAA | inactive: -0.12
GCTACGCC | inactive: -0.204
AGGGCACT | inactive: -0.136
CCCAGACG | inactive: -0.265
GAGAACCA | inactive: 0.0238

Sequence | PBM E-score
ATACTCTC | inactive: 0.0807
CCCCCACC | inactive: -0.356
CACGGGAA | inactive: -0.0415
ACCATGGT | inactive: 0.127
CGGTCGTC | inactive: -0.173
CCCCTTTA | inactive: -0.138
ACTCTGAG | inactive: -0.0354
CGGGAAAC | inactive: -0.0623
ATACCCCC | inactive: -0.213
GGCGGAAA | inactive: -0.149
CCTAGGTA | inactive: -0.00584
AGGCTCAG | inactive: -0.0492
CACAGACG | inactive: 0.0361
GTCCTGTA | inactive: 0.164
GACATAAA | inactive: 0.288
GTATCCTA | inactive: 0.109
AGGACATA | ≥ 0.284
GGAACTCC | inactive: -0.145
ACTGGACT | inactive: 0.0442
CACCTCGG | inactive: -0.148
TACATGAA | active: 0.383
ATATGCCG | inactive: -0.0171
AGTAGCTC | inactive: -0.0271
GACAGTCA | inactive: -0.0261

Sequence | PBM E-score
TAGTTTCA | inactive: 0.125
GTAAATAA | inactive: 0.143
GTGGCATA | inactive: -0.0214
AGTCGAAA | inactive: 0.0145
GGGTCTGA | inactive: -0.193
CCTACATA | inactive: 0.153
AGGTTCTG | inactive: 0.0327
TACTTGCA | inactive: 0.161
ACGGTACG | inactive: -0.013
ACTTCTAA | inactive: 0.0438
GCCCGTCC | inactive: -0.243
ACTGAGAG | inactive: -0.06
AGCGATTG | inactive: -0.063
GAGAAGAA | inactive: 0.0108
CTCTCCGA | inactive: -0.187
ACACTGCT | inactive: 0.103
GTACCCGA | inactive: 0.0664
AGAAATAG | inactive: 0.106
CTAAATCA | inactive: 0.0485
CATTTTGG | inactive: 0.026
GATACACA | inactive: 0.241
GTATTCAA | inactive: 0.0626
AACAGAAT | inactive: 0.12
ACGGAGCG | inactive: -0.0924

Sequence | PBM E-score
ATGCAGTA | ≥ 0.133
ACTTTAAT | inactive: 0.0769
AACTTCCG | inactive: -0.0209
ATCCGCTG | inactive: 0.0352
ACCGTCCC | inactive: -0.167
CTTCTAGA | inactive: -0.0994
GAAAGAGA | inactive: -0.112
TCAGGTCA | inactive: -0.108
ATGTGAGC | inactive: 0.0896
AAGCTTTG | inactive: -0.0314
AAGATAGC | inactive: -0.0217
CGTCCCGC | inactive: -0.198
AACGTTCG | inactive: -0.0877
ACTCGTGA | inactive: 0.0139
ATATTGGC | inactive: 0.0615
CACCTGCG | inactive: -0.137
GCATAAAA | inactive: 0.134
AAGCACCT | inactive: -0.0929
CCGGGTGA | inactive: -0.151
CTCGGCAG | inactive: -0.132
AAGTGCGT | inactive: -0.0258
AACGTACT | inactive: 0.139
